According to ChEMBL document CHEMBL4888484, “Replenishing the malaria drug discovery pipeline: Screening and hit evaluation of the MMV Hit Generation Library 1 (HGL1) against asexual blood stage Plasmodium falciparum ,using a nano luciferase reporter read-out” (2022):
Hit rate of the full screen: of about 150,000 compounds, about 540 (0.36%) showed an effect of 50% or more. Some of the results follow.

tested on: Plasmodium falciparum; experiment: Primary screen in NF54 nanoGlo assay, in single point, at 2uM, 72h; a lower Z score goes with more inhibition; format: functional, Erythrocyte; conditions: timepoint 72 hour

First: CCc1ccc(OCC(=O)c2ccc3c(c2)N(Cc2ccc(C(=O)N[C@@H](C)CC)o2)C(=O)CO3)cc1
Second: Cc1ccc(F)cc1NC(=O)Cn1nc2c(Oc3ccccc3C)nccn2c1=O
The “% Inhibition” value of the first is higher: 1% for the first, -12% for the second.

Going from Cc1ccc(NCc2c(F)cncc2F)c(OC[C@H]2CCCO2)c1 to CCCN(Cc1nc(-c2ccccc2F)no1)C[C@H]1CCCCO1, the “% Inhibition” value rises from -6% to 2%.

Going from COc1c(C)cc(C(=O)[C@H]2CCCN(C(=O)Cn3ccc(C)n3)C2)cc1C to O=C(Cn1ncn2nc(-c3ccccc3)cc2c1=O)N1CCCCC1, the “% Inhibition” value falls from -1% to -20%.

First: CCOCC(=O)N1CCC[C@@]2(CCC(=O)N(CCc3c[nH]cn3)C2)C1
Second: O=C1CCCCN1CC(=O)N1CCO[C@H](c2ccccc2)C1
The “% Inhibition” value of the first is higher: -5% for the first, -13% for the second.

First: Cc1cc(C)cc(NC(=O)[C@@H]2CCCN2S(=O)(=O)c2cc3c(cc2C)NC(=O)CO3)c1
Second: O=C(Nc1nc2cc3c(cc2s1)OCCO3)c1ccc(S(=O)(=O)N2CCCC2)cc1
The “% Inhibition” value of the first is higher: 1% for the first, -12% for the second.

Compared with CCc1nc(C[C@H]2CN(C(=O)Nc3ccc4c(c3)CCC4)CCO2)no1, COc1ccc(NC(=O)N2CCC[C@H]2c2cccs2)cn1 is higher in “% Inhibition” value: -3% for the first, 3% for the second.

First: Cc1cc(C(=O)NC[C@H](O)c2ccnn2C)ccc1N1CCOCC1
Second: CCc1nn2c(C)c(C(=O)N3CCOCC3)nnc2c1-c1ccccc1
The “% Inhibition” value of the first is higher: -12% for the first, -13% for the second.

Going from Cc1nn(C(C)(C)C)cc1C(=O)NCCn1cnnc1C(C)C to COCCn1cnnc1CCNC(=O)[C@H](O)c1ccccc1Cl, the “% Inhibition” value falls from -2% to -4%.

Compared with CC1CC(=O)CCC1c1nc(C2COCCN2C(=O)OC(C)(C)C)no1 (stereo not given), COC(=O)[C@@H](NC(=O)c1[nH]nc(C2CC2)c1Cl)C(C)(C)C is higher in “% Inhibition” value: -5% for the first, 28% for the second.

Compared with O=S(=O)(c1ccc(F)cc1)N1CCc2nc(N3CCCC3)nc(Oc3ccc(F)c(F)c3)c2C1, N#Cc1nc(-c2ccc(OCc3ccccc3Cl)cc2)oc1N1CCCCCC1 is lower in “% Inhibition” value: -8% for the first, -9% for the second.

Compared with C[C@@H](c1nc2cc(Cl)ccc2[nH]1)N(C)S(=O)(=O)N1CCC1, NS(=O)(=O)c1ccc(N[C@H]2CCN(c3ccc(F)c(Cl)c3)C2)nc1 is lower in “% Inhibition” value: 6% for the first, -8% for the second.

First: Nc1ncnc(N[C@H](c2nccs2)C2CC2)c1Cl
Second: O=C(Nc1nccs1)c1ccc(O[C@H]2CCOC2)nc1
The “% Inhibition” value of the first is higher: 5% for the first, -14% for the second.

Compared with C[C@H]1Cc2cc(C(=O)NC(C)(C)c3nnc(N)s3)ccc2O1, CC(C)CCC[C@H](C)NC(=O)c1ccc(O)c(Cl)c1 is lower in “% Inhibition” value: -5% for the first, -15% for the second.

Compared with N#Cc1c(O)nc(N)c2c1C(c1ccc(Cl)cc1)=NC2=O, Cc1ccc(Cl)cc1NC(=O)Cn1nc2c(Oc3cccc(C)c3C)nccn2c1=O is lower in “% Inhibition” value: -6% for the first, -15% for the second.

First: O=C(Nc1ccc(S(=O)(=O)Nc2nccs2)cc1)c1cccc2ccccc12
Second: COc1ccc(NS(=O)(=O)c2ccc(NC(=O)c3ccccc3)cc2)nn1
The “% Inhibition” value of the first is higher: -2% for the first, -14% for the second.

Going from O=C(c1cccnc1)N(CCN1CCCC1)C1CCOCC1 to CC1CCCCC1N1CCN(Cc2ccncc2)CC1 (stereo not given), the “% Inhibition” value falls from -1% to -13%.

First: Cc1cnn(Cc2noc3c2CCCC3)c1
Second: CCCc1ncncc1-c1nc(C(C)C)nn1CCO
The “% Inhibition” value of the first is higher: 5% for the first, -12% for the second.

Going from CCc1c(C(=O)N2CC(CF)C2)ccn1C to CN1CCO[C@@H](CN(CC2CC2)C(=O)Cc2ccccc2O)C1, the “% Inhibition” value rises from -12% to -11%.

Going from O=C(NCc1nc(C2CCCCC2)cs1)c1ccco1 to C=C(C)COc1cccc(NC(=O)C(=O)NCc2nc(C)cs2)c1, the “% Inhibition” value falls from -3% to -10%.

Compared with CCCc1cc(C(=O)NCCc2cc(O)nc(C)n2)ccn1, COc1ccc(NC(=O)c2cc(C)n3nc(-c4ccccn4)cc3n2)cc1Cl is lower in “% Inhibition” value: 8% for the first, 1% for the second.

First: Cn1nccc1CNC(CO)CC(O)C(C)(C)C (stereo not given)
Second: Cc1ccc([C@H](C)NCc2ncoc2C(C)C)o1
The “% Inhibition” value of the first is lower: -3% for the first, 0% for the second.

Compared with COCCN(C1CCCC1)S(=O)(=O)c1cc(C)sc1C, O=C(NCc1ccc(S(=O)(=O)N2CCCCCC2)s1)c1ccc2c(c1)OCO2 is lower in “% Inhibition” value: -10% for the first, -13% for the second.

First: CN(Cc1nc(-c2ccncc2)no1)C[C@H]1CCOC1
Second: COC(=O)c1ccc(C(=O)N2CC[C@H](c3ncon3)C2)cc1
The “% Inhibition” value of the first is lower: -3% for the first, 0% for the second.

Going from O=C(O)[C@H]1CCCCN1Cc1cc2ccccc2o1 to O[C@@]1(CNCc2ccccc2Cl)CCCN2CCCC[C@@H]21, the “% Inhibition” value falls from -11% to -13%.

Compared with COCc1cc(CN(C)c2cc(N(C)C)ncn2)n[nH]1, Cc1ccc(C(=O)N(CC(F)(F)F)c2nc(C)cs2)cn1 is lower in “% Inhibition” value: -5% for the first, -12% for the second.

First: CN(C)[C@@H](CNC(=O)C(=O)Nc1cccc(C(F)(F)F)c1)c1ccc2c(c1)CCO2
Second: Cc1ccccc1NC(=O)Cc1c(C)nc2nc(-c3cccs3)nn2c1C
The “% Inhibition” value of the first is higher: -5% for the first, -12% for the second.

Going from CN1CCC(N2CCN(Cc3nc4c(s3)CCCC4)C[C@@H]2CCO)CC1 to CNC(=O)CCN(C)[C@@H](C)c1nc(C(C)C)no1, the “% Inhibition” value falls from -12% to -14%.

Cc1c(C2c3ccccc3Oc3ccccc32)c(=O)n(-c2ccccc2)n1C was tested, and the “% Inhibition” value was 19%.

Compared with CCc1ccc(OCC(=O)c2ccc3c(c2)N(Cc2ccc(C(=O)N[C@@H](C)CC)o2)C(=O)CO3)cc1, Cc1ccc(F)cc1NC(=O)Cn1nc2c(Oc3ccccc3C)nccn2c1=O is higher in Z score: -0.12 for the first, 1.13 for the second.

Compared with Cc1ccc(NCc2c(F)cncc2F)c(OC[C@H]2CCCO2)c1, CCCN(Cc1nc(-c2ccccc2F)no1)C[C@H]1CCCCO1 is lower in Z score: 0.95 for the first, -0.32 for the second.

Compared with COc1c(C)cc(C(=O)[C@H]2CCCN(C(=O)Cn3ccc(C)n3)C2)cc1C, O=C(Cn1ncn2nc(-c3ccccc3)cc2c1=O)N1CCCCC1 is higher in Z score: 0.16 for the first, 1.75 for the second.

Compared with CCOCC(=O)N1CCC[C@@]2(CCC(=O)N(CCc3c[nH]cn3)C2)C1, O=C1CCCCN1CC(=O)N1CCO[C@H](c2ccccc2)C1 is higher in Z score: 0.93 for the first, 2.53 for the second.

First: Cc1cc(C)cc(NC(=O)[C@@H]2CCCN2S(=O)(=O)c2cc3c(cc2C)NC(=O)CO3)c1
Second: O=C(Nc1nc2cc3c(cc2s1)OCCO3)c1ccc(S(=O)(=O)N2CCCC2)cc1
The Z score of the first is lower: -0.1 for the first, 2.3 for the second.

Compared with CCc1nc(C[C@H]2CN(C(=O)Nc3ccc4c(c3)CCC4)CCO2)no1, COc1ccc(NC(=O)N2CCC[C@H]2c2cccs2)cn1 is lower in Z score: 0.41 for the first, -0.48 for the second.

Going from Cc1cc(C(=O)NC[C@H](O)c2ccnn2C)ccc1N1CCOCC1 to CCc1nn2c(C)c(C(=O)N3CCOCC3)nnc2c1-c1ccccc1, the Z score falls from 1.55 to 1.41.

First: Cc1nn(C(C)(C)C)cc1C(=O)NCCn1cnnc1C(C)C
Second: COCCn1cnnc1CCNC(=O)[C@H](O)c1ccccc1Cl
The Z score of the first is lower: 0.26 for the first, 0.82 for the second.

First: CC1CC(=O)CCC1c1nc(C2COCCN2C(=O)OC(C)(C)C)no1 (stereo not given)
Second: COC(=O)[C@@H](NC(=O)c1[nH]nc(C2CC2)c1Cl)C(C)(C)C
The Z score of the first is higher: 0.62 for the first, -3.14 for the second.

First: O=S(=O)(c1ccc(F)cc1)N1CCc2nc(N3CCCC3)nc(Oc3ccc(F)c(F)c3)c2C1
Second: N#Cc1nc(-c2ccc(OCc3ccccc3Cl)cc2)oc1N1CCCCCC1
The Z score of the first is lower: 0.88 for the first, 1.23 for the second.

Going from C[C@@H](c1nc2cc(Cl)ccc2[nH]1)N(C)S(=O)(=O)N1CCC1 to NS(=O)(=O)c1ccc(N[C@H]2CCN(c3ccc(F)c(Cl)c3)C2)nc1, the Z score rises from -0.72 to 1.04.

Going from Nc1ncnc(N[C@H](c2nccs2)C2CC2)c1Cl to O=C(Nc1nccs1)c1ccc(O[C@H]2CCOC2)nc1, the Z score rises from -0.68 to 2.58.

Going from C[C@H]1Cc2cc(C(=O)NC(C)(C)c3nnc(N)s3)ccc2O1 to CC(C)CCC[C@H](C)NC(=O)c1ccc(O)c(Cl)c1, the Z score rises from 0.69 to 1.35.

Compared with N#Cc1c(O)nc(N)c2c1C(c1ccc(Cl)cc1)=NC2=O, Cc1ccc(Cl)cc1NC(=O)Cn1nc2c(Oc3cccc(C)c3C)nccn2c1=O is higher in Z score: 0.93 for the first, 2.33 for the second.

First: O=C(Nc1ccc(S(=O)(=O)Nc2nccs2)cc1)c1cccc2ccccc12
Second: COc1ccc(NS(=O)(=O)c2ccc(NC(=O)c3ccccc3)cc2)nn1
The Z score of the first is lower: 0.43 for the first, 1.88 for the second.

Compared with O=C(c1cccnc1)N(CCN1CCCC1)C1CCOCC1, CC1CCCCC1N1CCN(Cc2ccncc2)CC1 (stereo not given) is higher in Z score: 0.12 for the first, 1.69 for the second.

Going from Cc1cnn(Cc2noc3c2CCCC3)c1 to CCCc1ncncc1-c1nc(C(C)C)nn1CCO, the Z score rises from -0.64 to 2.15.

Going from CCc1c(C(=O)N2CC(CF)C2)ccn1C to CN1CCO[C@@H](CN(CC2CC2)C(=O)Cc2ccccc2O)C1, the Z score rises from 1.22 to 1.49.

Going from O=C(NCc1nc(C2CCCCC2)cs1)c1ccco1 to C=C(C)COc1cccc(NC(=O)C(=O)NCc2nc(C)cs2)c1, the Z score rises from 0.5 to 1.27.

Going from CCCc1cc(C(=O)NCCc2cc(O)nc(C)n2)ccn1 to COc1ccc(NC(=O)c2cc(C)n3nc(-c4ccccn4)cc3n2)cc1Cl, the Z score rises from -0.75 to -0.08.

Going from Cn1nccc1CNC(CO)CC(O)C(C)(C)C (stereo not given) to Cc1ccc([C@H](C)NCc2ncoc2C(C)C)o1, the Z score falls from 0.38 to 0.02.

Going from COCCN(C1CCCC1)S(=O)(=O)c1cc(C)sc1C to O=C(NCc1ccc(S(=O)(=O)N2CCCCCC2)s1)c1ccc2c(c1)OCO2, the Z score rises from 0.85 to 1.29.

Compared with CN(Cc1nc(-c2ccncc2)no1)C[C@H]1CCOC1, COC(=O)c1ccc(C(=O)N2CC[C@H](c3ncon3)C2)cc1 is lower in Z score: 0.6 for the first, -0.03 for the second.

Compared with O=C(O)[C@H]1CCCCN1Cc1cc2ccccc2o1, O[C@@]1(CNCc2ccccc2Cl)CCCN2CCCC[C@@H]21 is lower in Z score: 2.27 for the first, 1.93 for the second.

First: COCc1cc(CN(C)c2cc(N(C)C)ncn2)n[nH]1
Second: Cc1ccc(C(=O)N(CC(F)(F)F)c2nc(C)cs2)cn1
The Z score of the first is lower: 1.06 for the first, 2.35 for the second.

First: CN(C)[C@@H](CNC(=O)C(=O)Nc1cccc(C(F)(F)F)c1)c1ccc2c(c1)CCO2
Second: Cc1ccccc1NC(=O)Cc1c(C)nc2nc(-c3cccs3)nn2c1C
The Z score of the first is lower: 0.75 for the first, 1.35 for the second.

First: CN1CCC(N2CCN(Cc3nc4c(s3)CCCC4)C[C@@H]2CCO)CC1
Second: CNC(=O)CCN(C)[C@@H](C)c1nc(C(C)C)no1
The Z score of the first is lower: 1.56 for the first, 1.81 for the second.

Compound Cc1c(C2c3ccccc3Oc3ccccc32)c(=O)n(-c2ccccc2)n1C has a Z score of -3.81.
